Measured values: the supplement of paper PMC12217912
The list shows a part of the results. Sequences were assembled here from the parent chain. Values near 0.05 are background.

B1: TEV protease; numbered along this chain (parent)
chain: MGESLFKGPRDYNPISSSICHLTNESDGHTTSLYGIGFGPFIITNKHLFRRNNGTLVVQSLHGVFKVKDTTTLQQHLVDGRDMIIIRMPKDFPPFPQKLKFREPQREERICLVTTNFQTKSMSSMVSDTSCTFPSGDGIFWKHWIQTKDGQCGSPLVSTRDGFIVGIHSASNFTNTNNYFTSVPKNFMELLTNQEAQQWVSGWRLNADSVLWGGHKVFMVKPEEPFQPVKEATQL

Variants of: B1
Assay: raw area under fraction-flipped curve 0-4 h after induction (AUC4h, not background-subtracted), DNA-recorder readout of cleavage of the substrate (dimensionless); higher = more cleavage of the substrate by the protease variant
Conditions: temperature: 34 °C; time window: 0-4 h after rhamnose induction
Description: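 In vivo DNA recorder in E. coli TOP10(DE3) ΔrhaA at 34 °C. Each TEVp single-site mutant (parent TEVp 0) is paired with a single-site variant of the 7-mer TEVs (canonical ENLYFQ|S). The substrate sits between flexible linkers in a Bxb1-sfGFP-TEVs-SsrA fusion, so cleavage stabilises Bxb1 and speeds flipping of a recombination array, read by NGS. The value is the raw area under the fraction-flipped curve over 0-4 h after rhamnose induction (AUC4h), with ≥20 reads per time point. It is not background-subtracted; inactive controls average about 0.047.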
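Further: Bxb1 expression induced with 0.2% (w/v) L-rhamnose at OD600 near 0.5, cultures sampled hourly, flipped fraction per protease–substrate barcode pair counted by paired-end Illumina sequencing.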

Row | Variant | area with substrate ENLYFQA | area with substrate ENLYFQC | area with substrate ENLYFQD | area with substrate ENLYFQG | area with substrate ENLYFQI | area with substrate ENLYFQL | area with substrate ENLYFQM | area with substrate ENLYFQN | area with substrate ENLYFQP | area with substrate ENLYFQS | area with substrate ENLYFQT | area with substrate ENLYFQV | area with substrate ENLYFQW | area with substrate ENLYFQY | area with substrate ENLYFQF | area with substrate ENLYFQH | area with substrate ENLYFQQ | area with substrate ENLYFQK | area with substrate ENLYFQR
1 | MGESLFKGPRDYNPISSSICHLTNESDGHTTSLYGIGFGPFIITNKHLFRRNNGTLVVQSLHGVFKVKDTTTLQQHLVDGRTMIIIRMPKDFPPFPQKLKFREPQREERICLVTTNFQTKSMSSMVSDTSCTFPSGDGIFWKHWIQTKDGQCGSPLVSTRDGFIVGIHSASNFTNTNNYFTSVPKNFMELLTNQEAQQWVSGWRLNADSVLWGGHKVFMVKPEEPFQPVKEATQL [D82T] | 0.0559 | 0.0486 | 0.0561 | 0.0609 | 0.0621 | 0.0511 | 0.0514 | 0.0412 | 0.0605 | 0.0571 | 0.059 | 0.0464 | 0.0588 | 0.0799 |  |  |  |  | 
2 | MGESLFKGPRDYNPISSSICHLTNESDGHTTSLYGIGFGPFIITNKHLFRRNNGTLVVQSLHGVFKVKDTTTLQQHLVDGRDMIIIRMPTDFPPFPQKLKFREPQREERICLVTTNFQTKSMSSMVSDTSCTFPSGDGIFWKHWIQTKDGQCGSPLVSTRDGFIVGIHSASNFTNTNNYFTSVPKNFMELLTNQEAQQWVSGWRLNADSVLWGGHKVFMVKPEEPFQPVKEATQL [K90T] | 0.101 | 0.102 |  | 0.087 | 0.0877 |  | 0.0863 | 0.0996 | 0.0545 | 0.101 |  |  |  | 0.0686 | 0.0725 | 0.0831 | 0.0596 |  | 
3 | MGESLFKGPRDYNPISSSICHLTNESDGHTTSLYGIGFGPFIITNKHLFRRNNGTLVVQSLHGVFKVKDTTTLQQHLVDGRDMIIIRMPDDFPPFPQKLKFREPQREERICLVTTNFQTKSMSSMVSDTSCTFPSGDGIFWKHWIQTKDGQCGSPLVSTRDGFIVGIHSASNFTNTNNYFTSVPKNFMELLTNQEAQQWVSGWRLNADSVLWGGHKVFMVKPEEPFQPVKEATQL [K90D] | 0.0758 |  |  |  |  |  |  |  |  | 0.108 |  |  |  |  |  |  |  | 0.0754 | 0.0581
4 | MGESLFKGPRDYNPISSSICHLTNESDGHTTSLYGIGFGPFIITNKHLFRRNNGTLVVQSLHGVFKVKDTTTLQQHLVDGRDMIIIRMPKGFPPFPQKLKFREPQREERICLVTTNFQTKSMSSMVSDTSCTFPSGDGIFWKHWIQTKDGQCGSPLVSTRDGFIVGIHSASNFTNTNNYFTSVPKNFMELLTNQEAQQWVSGWRLNADSVLWGGHKVFMVKPEEPFQPVKEATQL [D91G] | 0.095 | 0.145 | 0.0815 | 0.0979 |  | 0.042 | 0.0916 | 0.0953 | 0.0615 | 0.101 | 0.0609 |  | 0.0662 |  |  |  | 0.0909 | 0.0641 | 0.0598
5 | MGESLFKGPRDYNPISSSICHLTNESDGHTTSLYGIGFGPFIITNKHLFRRNNGTLVVQSLHGVFKVKDTTTLQQHLVDGRDMIIIRMPKYFPPFPQKLKFREPQREERICLVTTNFQTKSMSSMVSDTSCTFPSGDGIFWKHWIQTKDGQCGSPLVSTRDGFIVGIHSASNFTNTNNYFTSVPKNFMELLTNQEAQQWVSGWRLNADSVLWGGHKVFMVKPEEPFQPVKEATQL [D91Y] | 0.0552 | 0.119 |  | 0.0576 |  | 0.0804 |  |  | 0.0768 | 0.0977 |  | 0.0348 |  | 0.104 |  | 0.0743 |  | 0.0582 | 0.0456
6 | MGESLFKGPRDYNPISSSICHLTNESDGHTTSLYGIGFGPFIITNKHLFRRNNGTLVVQSLHGVFKVKDTTTLQQHLVDGRDMIIIRMRKDFPPFPQKLKFREPQREERICLVTTNFQTKSMSSMVSDTSCTFPSGDGIFWKHWIQTKDGQCGSPLVSTRDGFIVGIHSASNFTNTNNYFTSVPKNFMELLTNQEAQQWVSGWRLNADSVLWGGHKVFMVKPEEPFQPVKEATQL [P89R] | 0.0778 | 0.1 |  | 0.0704 | 0.0467 | 0.0661 | 0.0695 | 0.0641 | 0.0545 | 0.0803 |  | 0.0705 | 0.061 | 0.0782 | 0.0677 |  |  | 0.0586 | 0.0294
7 | MGESLFKGPRDYNPISSSICHLTNESDGHTTSLYGIGFGPFIITNKHLFRRNNGTLVVQSLHGVFKVKDTTTLQQHLVDGRDMIIIRMGKDFPPFPQKLKFREPQREERICLVTTNFQTKSMSSMVSDTSCTFPSGDGIFWKHWIQTKDGQCGSPLVSTRDGFIVGIHSASNFTNTNNYFTSVPKNFMELLTNQEAQQWVSGWRLNADSVLWGGHKVFMVKPEEPFQPVKEATQL [P89G] | 0.0816 |  |  |  |  |  | 0.0614 | 0.071 | 0.0469 | 0.0873 |  |  |  | 0.0976 | 0.057 |  |  | 0.0748 | 0.057
8 | MGESLFKGPRDYNPISSSICHLTNESDGHTTSLYGIGFGPFIITNKHLFRRNNGTLVVQSLHGVFKVKDTTILQQHLVDGRDMIIIRMPKDFPPFPQKLKFREPQREERICLVTTNFQTKSMSSMVSDTSCTFPSGDGIFWKHWIQTKDGQCGSPLVSTRDGFIVGIHSASNFTNTNNYFTSVPKNFMELLTNQEAQQWVSGWRLNADSVLWGGHKVFMVKPEEPFQPVKEATQL [T72I] | 0.0659 |  |  |  |  | 0.0459 |  | 0.0747 | 0.0642 | 0.11 |  |  | 0.0717 | 0.0742 |  |  |  | 0.0612 | 0.0382
9 | MGESLFKGPRDYNPISSSICHLTNESDGHTTSLYGIGFGPFIITNKHLFRRNNGTLVVQSLHGVFKVKDTTWLQQHLVDGRDMIIIRMPKDFPPFPQKLKFREPQREERICLVTTNFQTKSMSSMVSDTSCTFPSGDGIFWKHWIQTKDGQCGSPLVSTRDGFIVGIHSASNFTNTNNYFTSVPKNFMELLTNQEAQQWVSGWRLNADSVLWGGHKVFMVKPEEPFQPVKEATQL [T72W] | 0.0711 | 0.0849 | 0.0663 | 0.0689 |  |  |  | 0.0543 |  | 0.0789 | 0.0674 |  | 0.053 |  |  | 0.0688 |  |  | 0.0522
